Among the data in the antibiotic and cytotoxicity screens of Wong et al. (2023) are cytotoxicity call and growth inhibition call values, retold here.

One test relates to HSkMC. The test is described as follows: cytotoxicity call (relative viability < 0.9). Conditions: 10 µM.
Another test relates to HepG2. The test is described as follows: cytotoxicity call (relative viability < 0.9). Conditions: 10 µM.
The next test concerns S. aureus RN4220. The test is described as follows: growth inhibition call (relative growth <= 0.2). Conditions: 50 µM.

Each structure is given as a SMILES string. The list shows a part of the results.

Take `C[C@H]1CCCCO[C@@H](CN(C)Cc2ccc3c(c2)OCO3)[C@@H](C)CN([C@@H](C)CO)C(=O)c2cc(NC(=O)C3CCCCC3)ccc2O1`: the cytotoxicity call in the test with HSkMC and in the test with HepG2 was “inactive” in each case. The growth inhibition call with S. aureus RN4220 is “inactive”.
`COc1ccc(C#Cc2ccc3c(c2)O[C@@H](CN(C)C(C)=O)[C@@H](C)CN([C@@H](C)CO)S3(=O)=O)cc1`: the cytotoxicity call in the test with HSkMC and in the test on HepG2 was “inactive” throughout. Besides, the growth inhibition call in the test on S. aureus RN4220 was “inactive”.
For the compound `CC(C)NC(=O)N[C@H]1C=C[C@@H](CC(=O)NCCCN(C)C)O[C@@H]1CO`, the cytotoxicity call with HSkMC and in the test on HepG2 was “inactive” throughout. Also, the growth inhibition call in the test with S. aureus RN4220 was “inactive”.
Consider `CO[C@@H]1CN(C)C(=O)c2ccc(NS(=O)(=O)CC(F)(F)F)cc2OC[C@H](C)N(C(=O)c2ccc3c(c2)OCO3)C[C@H]1C`, for which the cytotoxicity call in the test with HSkMC and in the test with HepG2 was “inactive” in each case. In addition, the growth inhibition call with S. aureus RN4220 was “inactive”.
As to `C[C@@H]1CN([C@@H](C)CO)S(=O)(=O)c2ccc(C#C[C@@H](C)O)cc2O[C@@H]1CN(C)C(=O)CN(C)C`, the cytotoxicity call in the test with HSkMC and in the test with HepG2 was “inactive” throughout. Besides, the growth inhibition call with S. aureus RN4220 is “inactive”.
Consider `Cc1ccc(S(=O)(=O)N(C)C[C@H]2Oc3ncc(C#CCC(C)C)cc3C(=O)N([C@@H](C)CO)C[C@H]2C)cc1`, for which, in the test with HSkMC, the cytotoxicity call was “inactive”. Besides, the cytotoxicity call with HepG2 was “active”. Moreover, the growth inhibition call with S. aureus RN4220 is “inactive”.
With `COc1cccc(S(=O)(=O)Nc2ccc3c(c2)OC[C@H](C)N(C(=O)Cc2cccnc2)C[C@@H](C)[C@H](OC)CN(C)C3=O)c1`, the cytotoxicity call with HSkMC and in the test with HepG2 was “inactive” throughout. In addition, the growth inhibition call in the test with S. aureus RN4220 was “inactive”.
Consider `Cc1ccc(NC2=CC(=O)C[C@H](c3ccc(Cl)cc3)C2)cc1`, for which the cytotoxicity call with HSkMC and in the test on HepG2 was “inactive” in each case. Besides, the growth inhibition call in the test with S. aureus RN4220 is “inactive”.
As to `C=CC(=O)Nc1cccc(Nc2nc(Nc3ccc(NC4CN(CCF)C4)cc3OC)ncc2C(F)(F)F)c1`, the cytotoxicity call in the test on HSkMC and in the test with HepG2 was “active” in each case. Also, the growth inhibition call in the test on S. aureus RN4220 was “inactive”.
Take `C[C@@H]1CN([C@H](C)CO)C(=O)Cc2cc(NC(=O)CCN3CCOCC3)ccc2O[C@H]1CN(C)S(=O)(=O)c1ccccc1`: the cytotoxicity call in the test on HSkMC and in the test on HepG2 was “inactive” each time. Moreover, the growth inhibition call in the test on S. aureus RN4220 was “inactive”.
With `C[C@@H]1CCCCO[C@H](CN(C)C(=O)C2CCCCC2)[C@H](C)CN([C@H](C)CO)C(=O)c2cc(NC(=O)Nc3ccccc3)ccc2O1`, the cytotoxicity call with HSkMC and with HepG2 was “inactive” throughout. For the same compound, the growth inhibition call in the test on S. aureus RN4220 is “inactive”.
With `C[C@H]1CN([C@@H](C)CO)C(=O)Cc2cc(NC(=O)CCCN(C)C)ccc2O[C@@H]1CN(C)C(=O)Nc1ccc2c(c1)OCO2`, the cytotoxicity call in the test on HSkMC and with HepG2 was “inactive” throughout. The growth inhibition call with S. aureus RN4220 was “inactive”.
On to `Cc1noc(C)c1S(=O)(=O)N(C)C[C@H]1OCCCC[C@@H](C)Oc2ccc(NS(C)(=O)=O)cc2C(=O)N([C@@H](C)CO)C[C@H]1C`, for which the cytotoxicity call in the test on HSkMC and in the test on HepG2 was “inactive” each time. The growth inhibition call in the test on S. aureus RN4220 was “inactive”.
Regarding `C[C@H](CO)N1C[C@H](C)[C@H](CN(C)Cc2ccncc2)Oc2c(NC(=O)Nc3ccc(C(F)(F)F)cc3)cccc2C1=O`, the cytotoxicity call in the test on HSkMC and with HepG2 was “inactive” each time. Also, in the test on S. aureus RN4220, the growth inhibition call is “inactive”.
`Cc1ccc(S(=O)(=O)N(C)C[C@H]2OCCCC[C@@H](C)Oc3ccc(NC(=O)c4ccccc4)cc3C(=O)N([C@@H](C)CO)C[C@@H]2C)cc1`: the cytotoxicity call in the test with HSkMC and in the test on HepG2 was “inactive” in each case. Further, in the test on S. aureus RN4220, the growth inhibition call was “inactive”.
As to `O=C(C[C@@H]1CC[C@H]2[C@@H](COC[C@H](O)CN2S(=O)(=O)c2cccc(Cl)c2)O1)NCc1ccncn1`, the cytotoxicity call with HSkMC and in the test with HepG2 was “inactive” in each case. In the test on S. aureus RN4220, the growth inhibition call is “inactive”.
For the compound `C[C@@H]1CN([C@@H](C)CO)C(=O)c2cc(N(C)C)ccc2O[C@@H](C)CCCCO[C@H]1CN(C)C(=O)CCCN(C)C`, the cytotoxicity call in the test on HSkMC and in the test with HepG2 was “inactive” throughout. For the same compound, the growth inhibition call with S. aureus RN4220 is “inactive”.
Consider `C[C@H]1CN([C@@H](C)CO)C(=O)c2cccc(NC(=O)C3CCOCC3)c2O[C@H]1CN(C)C(=O)NC1CCCCC1`, for which the cytotoxicity call in the test with HSkMC and in the test on HepG2 was “inactive” throughout. Further, in the test on S. aureus RN4220, the growth inhibition call is “inactive”.
In the case of `COc1ccc(NC(=O)Nc2ccc3c(c2)C(=O)N([C@H](C)CO)C[C@H](C)[C@@H](CN(C)Cc2ccccc2)OCCCC[C@@H](C)O3)cc1`, the cytotoxicity call with HSkMC and in the test on HepG2 was “inactive” each time. Besides, in the test with S. aureus RN4220, the growth inhibition call was “inactive”.
`Cc1ccc(S(=O)(=O)Nc2ccc3c(c2)C(=O)N([C@H](C)CO)C[C@@H](C)[C@@H](CN(C)Cc2ccncc2)OCCCC[C@@H](C)O3)cc1`: the cytotoxicity call in the test on HSkMC and in the test on HepG2 was “inactive” each time. In the test with S. aureus RN4220, the growth inhibition call was “inactive”.
For the compound `C[C@@H]1CN([C@H](C)CO)C(=O)c2cc(NC(=O)Cc3ccccc3)ccc2O[C@H]1CN(C)Cc1ccc(Oc2ccccc2)cc1`, in the test with HSkMC, the cytotoxicity call was “inactive”. For the same compound, the cytotoxicity call in the test with HepG2 was “active”. Moreover, the growth inhibition call with S. aureus RN4220 is “inactive”.
Turning to `COc1ccc(CN(C)C[C@@H]2OCCCC[C@H](C)Oc3ccc(NC(=O)C4CCCCC4)cc3C(=O)N([C@@H](C)CO)C[C@H]2C)cc1`, the cytotoxicity call in the test with HSkMC was “inactive”. Also, the cytotoxicity call with HepG2 was “active”. Further, in the test with S. aureus RN4220, the growth inhibition call is “inactive”.
For the compound `COc1ccc(NC(=O)Nc2ccc3c(c2)C(=O)N([C@H](C)CO)C[C@@H](C)[C@H](CN(C)C(=O)Cc2ccccc2)OCCCC[C@@H](C)O3)cc1`, the cytotoxicity call in the test on HSkMC and in the test with HepG2 was “inactive” throughout. For the same compound, in the test on S. aureus RN4220, the growth inhibition call is “inactive”.
In the case of `C[C@H](CO)N1C[C@H](C)[C@H](CN(C)S(=O)(=O)c2cn(C)cn2)Oc2cc(C#Cc3ccccc3)ccc2S1(=O)=O`, the cytotoxicity call in the test with HSkMC and in the test on HepG2 was “inactive” in each case. For the same compound, the growth inhibition call with S. aureus RN4220 is “inactive”.
As to `Cc1sc2[nH]cnc(=S)c2c1C`, the cytotoxicity call in the test on HSkMC and with HepG2 was “inactive” in each case. The growth inhibition call with S. aureus RN4220 is “inactive”.
Consider `C[C@H]1CN([C@@H](C)CO)S(=O)(=O)c2ccc(C#Cc3cccc(F)c3)cc2O[C@H]1CN(C)CC1CC1`, for which the cytotoxicity call in the test on HSkMC and in the test on HepG2 was “inactive” in each case. In addition, the growth inhibition call in the test on S. aureus RN4220 was “inactive”.
Consider `COc1ccccc1NC(=O)Nc1ccc2c(c1)OC[C@@H](C)N(Cc1ccccc1Cl)C[C@@H](C)[C@H](OC)CN(C)C2=O`, for which the cytotoxicity call in the test on HSkMC and in the test on HepG2 was “inactive” each time. In the test with S. aureus RN4220, the growth inhibition call is “inactive”.
Turning to `C[C@@H]1CN([C@H](C)CO)C(=O)c2cc(NC(=O)Nc3ccc(C(F)(F)F)cc3)ccc2O[C@@H]1CN(C)C(=O)Nc1ccccc1`, the cytotoxicity call in the test on HSkMC and in the test with HepG2 was “inactive” throughout. For the same compound, in the test on S. aureus RN4220, the growth inhibition call was “inactive”.
As to `O=C(C[C@H]1C[C@@H]2c3cc(NC(=O)Nc4ccccc4F)ccc3O[C@@H]2[C@@H](CO)O1)NCc1ccc(Oc2ccccc2)cc1`, the cytotoxicity call in the test on HSkMC and with HepG2 was “inactive” each time. In addition, the growth inhibition call in the test with S. aureus RN4220 is “inactive”.
Consider `OC[C@H]1O[C@@H](Oc2c[nH]c3ccccc23)[C@H](O)[C@@H](O)[C@@H]1O`, for which the cytotoxicity call with HSkMC and in the test on HepG2 was “inactive” in each case. Besides, in the test on S. aureus RN4220, the growth inhibition call was “inactive”.
In the case of `O=C(C[C@@H]1C=C[C@@H](NC(=O)CN2CCOCC2)[C@@H](CO)O1)NCCc1ccncc1`, the cytotoxicity call in the test with HSkMC and in the test with HepG2 was “inactive” throughout. Moreover, in the test on S. aureus RN4220, the growth inhibition call is “inactive”.
In the case of `C[C@H](CO)N1C[C@H](C)[C@H](CN(C)Cc2ccc(-c3ccccc3)cc2)Oc2c(NS(=O)(=O)c3ccc(Cl)cc3)cccc2C1=O`, the cytotoxicity call with HSkMC and with HepG2 was “inactive” throughout. For the same compound, the growth inhibition call in the test with S. aureus RN4220 is “inactive”.
On to `C[C@@H]1CN([C@H](C)CO)C(=O)c2cccc(NS(=O)(=O)c3ccc(F)cc3)c2O[C@@H]1CN(C)C(=O)Nc1ccc(C(F)(F)F)cc1`, for which the cytotoxicity call with HSkMC and in the test with HepG2 was “inactive” throughout. The growth inhibition call with S. aureus RN4220 was “inactive”.
On to `CNC[C@H]1OCCCC[C@H](C)Oc2ccc(NS(=O)(=O)c3c(C)noc3C)cc2C(=O)N([C@H](C)CO)C[C@@H]1C`, for which the cytotoxicity call in the test on HSkMC and in the test on HepG2 was “inactive” throughout. The growth inhibition call in the test with S. aureus RN4220 is “inactive”.
On to `CO[C@H]1O[C@H](CO)[C@@H](OC(=O)c2ccc(Br)cc2)[C@@H]2OC(=O)[C@@H](Cc3ccccc3)C/C=C/C[C@H](Cc3ccccc3)C(=O)O[C@@H]12`, for which the cytotoxicity call in the test on HSkMC and with HepG2 was “inactive” in each case. For the same compound, the growth inhibition call in the test with S. aureus RN4220 is “inactive”.
For `C[C@H]1CN([C@@H](C)CO)C(=O)c2cc(C#Cc3cccnc3)cnc2O[C@@H]1CN(C)S(=O)(=O)c1ccccc1F`, the cytotoxicity call in the test on HSkMC (human skeletal muscle cells) and in the test with HepG2 was “inactive” throughout. For the same compound, the growth inhibition call in the test with S. aureus RN4220 is “inactive”.
With `C[C@@H]1CCCCO[C@@H](CN(C)C(=O)Nc2ccc(C(F)(F)F)cc2)[C@H](C)CN([C@H](C)CO)C(=O)c2cc(NC(=O)Nc3ccc(F)cc3)ccc2O1`, the cytotoxicity call in the test with HSkMC is “inactive”. For the same compound, in the test on HepG2, the cytotoxicity call was “active”. For the same compound, the growth inhibition call in the test on S. aureus RN4220 was “inactive”.
Turning to `C[C@H](CO)N1C[C@H](C)[C@@H](CN(C)S(=O)(=O)c2cccc(F)c2)Oc2ncc(Br)cc2C1=O`, the cytotoxicity call with HSkMC and in the test on HepG2 was “inactive” each time. Also, the growth inhibition call in the test on S. aureus RN4220 is “inactive”.
